Test results taken from the BET-seq Pho4 binding data (Le et al. 2018).
The list shows a part of the results. These are noisy estimates, calculated here from bound and input reads.

What follows are sequences tested against T1, Pho4 (S. cerevisiae) (UniProt P07270) (assay: relative binding free energy (BET-seq); higher = weaker binding). Conditions: reference: library average.
T1 sequence: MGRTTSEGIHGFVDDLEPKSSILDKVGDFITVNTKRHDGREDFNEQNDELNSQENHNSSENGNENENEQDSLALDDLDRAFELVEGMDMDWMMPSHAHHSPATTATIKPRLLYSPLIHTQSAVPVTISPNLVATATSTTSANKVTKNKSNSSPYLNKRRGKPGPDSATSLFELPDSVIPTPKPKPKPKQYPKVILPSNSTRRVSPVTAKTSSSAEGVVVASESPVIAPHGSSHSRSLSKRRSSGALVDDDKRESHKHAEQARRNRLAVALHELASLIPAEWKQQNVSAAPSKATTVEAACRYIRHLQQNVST

Sequence | relative binding free energy
GGTAGCACGTGTTGGT | -0.13 kcal/mol
ATTAGCACGTGACGTT | -0.06 kcal/mol
GAATTCACGTGGGTGA | 0.27 kcal/mol
GTTTTCACGTGTGGTC | 0.41 kcal/mol
GTTACCACGTGTTAGG | 0.09 kcal/mol
TATGGCACGTGTTAGA | -0.12 kcal/mol
GGGACCACGTGTGAGA | 0.18 kcal/mol
ACTGGCACGTGTTGGG | -0.13 kcal/mol
TCGTGCACGTGGGTTC | -0.06 kcal/mol
TGTGTCACGTGTAGGT | 0.03 kcal/mol
AGTTGCACGTGAGAGC | 0.22 kcal/mol
GTTAGCACGTGGGGAA | -0.03 kcal/mol
TTGTTCACGTGGCTCA | 0.25 kcal/mol
GGTGTCACGTGGGGTT | 0.03 kcal/mol
GGTTACACGTGTTTAT | 0.17 kcal/mol
TATTACACGTGAGAAG | 0.47 kcal/mol
CGTTTCACGTGCGAGT | 0.21 kcal/mol
TACAGCACGTGGGTGG | -0.15 kcal/mol
GGGTACACGTGAATGA | 0.4 kcal/mol
ATTTCCACGTGGCGTG | 0.06 kcal/mol
TTTTTCACGTGCAATT | 0.3 kcal/mol
TTTATCACGTGTTGCG | 0.32 kcal/mol
TGGTTCACGTGTTACG | 0.24 kcal/mol
ATGGTCACGTGGTCGG | -0.02 kcal/mol
ATAGTCACGTGGCGAT | 0.11 kcal/mol
AGCGTCACGTGTTTAG | 0.14 kcal/mol

Sequence | relative binding free energy
AGATGCACGTGTGTGG | 0.02 kcal/mol
TGGGTCACGTGTAGGA | 0.13 kcal/mol
ATTGCCACGTGATTTT | -0.01 kcal/mol
GTATACACGTGTTGAA | -0.02 kcal/mol
GTTGACACGTGAAGTA | 0.33 kcal/mol
GTGGGCACGTGTTGCC | -0.01 kcal/mol
TGAGTCACGTGTGGAC | 0.08 kcal/mol
CGTAACACGTGATGTT | 0.24 kcal/mol
TGAGGCACGTGGCGTA | -0.34 kcal/mol
GTCGGCACGTGTATTA | 0.19 kcal/mol
CGTTACACGTGTTTGA | 0 kcal/mol
GGGTTCACGTGGATAT | 0.33 kcal/mol
AAGTGCACGTGAAGTA | 0.15 kcal/mol
AGTTGCACGTGTGAAA | 0.08 kcal/mol
TCGGTCACGTGGTGTT | -0.03 kcal/mol
GCTTGCACGTGGATAG | 0.02 kcal/mol
CAAGTCACGTGGAGTT | 0.13 kcal/mol
GGTGGCACGTGTTGGT | 0.11 kcal/mol
AATGTCACGTGTAGTC | 0.16 kcal/mol
GTCGGCACGTGCGGGC | -0.05 kcal/mol
TGTGTCACGTGGCTAA | -0.08 kcal/mol
TTTAGCACGTGATAGG | 0.06 kcal/mol
GGTTGCACGTGCAGGG | 0.1 kcal/mol
TACTTCACGTGGAATT | 0.29 kcal/mol
TATAACACGTGGCTGT | -0.02 kcal/mol
TGGGACACGTGAGCTT | 0.13 kcal/mol

Sequence | relative binding free energy
ACTGTCACGTGTGAAT | 0.27 kcal/mol
TAAGGCACGTGAAGAA | 0.25 kcal/mol
TAGATCACGTGGATAG | 0.18 kcal/mol
GGTGCCACGTGGTCTT | -0.1 kcal/mol
CATGTCACGTGAGGGA | 0.14 kcal/mol
GTTGGCACGTGGAGAG | -0.05 kcal/mol
TATGTCACGTGATGTG | 0.21 kcal/mol
GGGCGCACGTGCGGTA | -0.12 kcal/mol
AGTAGCACGTGTCGTT | -0.17 kcal/mol
TAGTTCACGTGGGGGT | 0.23 kcal/mol
AAGTGCACGTGTGGCT | 0.14 kcal/mol
TAGTGCACGTGCGGGT | -0.01 kcal/mol
TGTTACACGTGGACAG | 0.14 kcal/mol
AAGTACACGTGTTTTA | 0.19 kcal/mol
TTTTGCACGTGCCGGA | -0.07 kcal/mol
TAATCCACGTGGGTGT | -0.1 kcal/mol
TTGTGCACGTGTGGCT | 0.08 kcal/mol
TGGATCACGTGAGAGG | 0.37 kcal/mol
TTTGGCACGTGCATAA | -0.22 kcal/mol
ATGGTCACGTGTCTAG | 0.06 kcal/mol
TGGGTCACGTGTGACT | 0.16 kcal/mol
GGAGACACGTGGTGTT | -0.02 kcal/mol
TTACGCACGTGAAGGG | 0.12 kcal/mol
CCTGGCACGTGTGGGT | -0.13 kcal/mol
TGATTCACGTGTGATT | 0.36 kcal/mol
GATGGCACGTGCTTGG | 0.03 kcal/mol

Sequence | relative binding free energy
AAGCTCACGTGTGGAT | 0.18 kcal/mol
TTGCACACGTGTGTTT | 0.02 kcal/mol
TGGGTCACGTGGTCGT | 0.02 kcal/mol
TCTTTCACGTGTGTCA | 0.24 kcal/mol
AATGTCACGTGGCGCG | 0.01 kcal/mol
AGAATCACGTGGTAGG | 0.15 kcal/mol
ATAAACACGTGTTGAT | 0.04 kcal/mol
GGCATCACGTGGTAGG | 0.08 kcal/mol
GAAGTCACGTGAGTGC | 0.39 kcal/mol
TTTGTCACGTGCGTAG | -0.09 kcal/mol
GTGGGCACGTGTGTTA | -0.06 kcal/mol
TGATACACGTGTCGGA | 0.11 kcal/mol
CTGGTCACGTGTTACG | 0.17 kcal/mol
TATTACACGTGCATTA | 0.13 kcal/mol
ATAGGCACGTGATGAT | -0.11 kcal/mol
GGGGTCACGTGAAGAG | 0.26 kcal/mol
TGAGGCACGTGAGCGA | 0.06 kcal/mol
AGTGGCACGTGCAAGT | -0.11 kcal/mol
TCGTACACGTGGGGGG | -0.15 kcal/mol
AGATCCACGTGTTGTG | 0.08 kcal/mol
TACGTCACGTGTGTGA | 0.05 kcal/mol
TGTCTCACGTGAGGAG | 0.23 kcal/mol
TTGTCCACGTGGTGAA | -0.03 kcal/mol
TAGTGCACGTGTTCAT | -0.04 kcal/mol
TGTATCACGTGCATGG | 0.14 kcal/mol
ATTCGCACGTGTTTGG | -0.07 kcal/mol

Sequence | relative binding free energy
AGGGACACGTGTTAGC | 0.09 kcal/mol
GATAACACGTGCTGGG | 0.09 kcal/mol
GCAAGCACGTGGTGTT | -0.08 kcal/mol
GGGAGCACGTGTAGTG | -0.06 kcal/mol
TAGAGCACGTGGGGGT | -0.22 kcal/mol
CGTAGCACGTGAGAGG | 0.15 kcal/mol
ATGGACACGTGTTAAA | 0.03 kcal/mol
TTTGTCACGTGGGGTC | -0.06 kcal/mol
GGGTCCACGTGTGGCA | 0.23 kcal/mol
TGAAGCACGTGCTGGA | -0.05 kcal/mol
TTATTCACGTGATTTG | 0.42 kcal/mol
TTTACCACGTGGGTGG | -0.21 kcal/mol
GTAGACACGTGGGATG | 0.01 kcal/mol
GCAGTCACGTGTGGGC | 0.22 kcal/mol
TTAGACACGTGGGTGA | -0.09 kcal/mol
AATTACACGTGTGGGA | -0.02 kcal/mol
TTGATCACGTGAATTA | 0.29 kcal/mol
TAAAACACGTGTGTTG | -0.09 kcal/mol
AAGGTCACGTGCGATG | 0.16 kcal/mol
ATGATCACGTGGGGAA | 0.01 kcal/mol
GTGTGCACGTGTCATG | -0.08 kcal/mol
TTCAGCACGTGATGTT | -0.04 kcal/mol
GGTCTCACGTGGTTCT | 0.29 kcal/mol
GGATTCACGTGTGGTG | 0.33 kcal/mol
TGTTGCACGTGAATTG | 0.23 kcal/mol
AAGACCACGTGAGGGG | 0.18 kcal/mol

Sequence | relative binding free energy
AAAGTCACGTGCATTG | 0.18 kcal/mol
TGCGGCACGTGTTCGG | -0.13 kcal/mol
ACATGCACGTGTATTG | -0.03 kcal/mol
TTAGACACGTGGCATG | -0.01 kcal/mol
TCTCTCACGTGGGGGT | 0.15 kcal/mol
GTTTGCACGTGGCTCT | -0.04 kcal/mol
TGGGTCACGTGATCAG | 0.24 kcal/mol
ATCTTCACGTGCTTGT | 0.21 kcal/mol
ATCTGCACGTGATTTG | 0.06 kcal/mol
CTGGGCACGTGATTGT | -0.1 kcal/mol
TTAGTCACGTGAAGGG | 0.37 kcal/mol
GGAATCACGTGTGGCA | 0.13 kcal/mol
GGATTCACGTGGTCAG | 0.22 kcal/mol
ATATGCACGTGTGGGG | -0.06 kcal/mol
TTAGGCACGTGGCATT | -0.27 kcal/mol
CGGGGCACGTGTGGCC | -0.07 kcal/mol
TTGGTCACGTGTAGGT | 0.2 kcal/mol
GGGAGCACGTGAAAGG | 0.18 kcal/mol
AGTCGCACGTGCGTGT | -0.06 kcal/mol
AAGCGCACGTGGGGGC | -0.15 kcal/mol
TTGTACACGTGGCTGG | -0.03 kcal/mol
CAGAGCACGTGGGGAG | -0.14 kcal/mol
TTATGCACGTGCGGGA | -0.04 kcal/mol
GGAATCACGTGTCAGT | 0.25 kcal/mol
GGTAACACGTGGCGTT | -0.1 kcal/mol
TCGGTCACGTGCTTTG | 0.18 kcal/mol

Sequence | relative binding free energy
GTCGACACGTGAGTTG | 0.3 kcal/mol
TTAGGCACGTGGGAAC | -0.23 kcal/mol
ATAGACACGTGTGTAT | 0.14 kcal/mol
ATTGACACGTGACGTG | 0.05 kcal/mol
TTTTACACGTGTGATG | 0.11 kcal/mol
GATCGCACGTGGTTGT | -0.09 kcal/mol
TTTCACACGTGGAGAT | 0.12 kcal/mol
GTTTTCACGTGGTATA | 0.34 kcal/mol
TAGATCACGTGAGCGG | 0.35 kcal/mol
TAATACACGTGCGTGT | -0.02 kcal/mol
GGTATCACGTGTAGAT | 0.26 kcal/mol
GGTGGCACGTGCTGAT | -0.13 kcal/mol
GTTTACACGTGGGCGT | -0.02 kcal/mol
TTTGACACGTGTTTCA | 0.07 kcal/mol
GAGGACACGTGGTAAT | 0.08 kcal/mol
AGTGACACGTGAAGGG | 0.09 kcal/mol
TCCTTCACGTGGGAGT | 0.33 kcal/mol
GGGGCCACGTGTAGAG | 0.05 kcal/mol
GTTGGCACGTGTCGTG | -0.01 kcal/mol
CTAGTCACGTGGGGCA | 0.02 kcal/mol
TATTTCACGTGGGTCA | 0.17 kcal/mol
CTGTGCACGTGTCATG | -0.03 kcal/mol
AGGGACACGTGATGAT | 0.13 kcal/mol
TCGTGCACGTGTTCGG | 0.16 kcal/mol
AAGAGCACGTGGGATA | -0.07 kcal/mol
ATATACACGTGCATGT | 0.09 kcal/mol

Sequence | relative binding free energy
GACTTCACGTGTGGTG | 0.3 kcal/mol
AATTCCACGTGGGTTG | -0.07 kcal/mol
TCGGTCACGTGAGTAT | 0.29 kcal/mol
AGGAACACGTGATGGA | 0.34 kcal/mol
GGATACACGTGAGAGT | 0.32 kcal/mol
TGTATCACGTGAATTA | 0.4 kcal/mol
GAGGTCACGTGTGTTC | 0.16 kcal/mol
GGTTGCACGTGGACAT | 0.01 kcal/mol
GTAGGCACGTGAAGGG | 0.14 kcal/mol
TTAATCACGTGGGAAT | -0.01 kcal/mol
GTTGGCACGTGACATT | 0.03 kcal/mol
TTGCTCACGTGACGGT | 0.33 kcal/mol
GCTGTCACGTGTATGG | 0.23 kcal/mol
ATAATCACGTGAGTTT | 0.37 kcal/mol
TTGGCCACGTGTGGAC | 0.02 kcal/mol
TAGGTCACGTGCGGCG | -0.13 kcal/mol
GAGAGCACGTGTGTCG | -0.05 kcal/mol
TTTCGCACGTGAAGTT | 0.23 kcal/mol
AGGGGCACGTGTCACG | -0.13 kcal/mol
CGATGCACGTGAGTTT | 0.23 kcal/mol
TTCTTCACGTGTTAGA | 0.06 kcal/mol
GATGACACGTGGGAAG | -0.04 kcal/mol
GTGGTCACGTGTTTAA | 0.07 kcal/mol
TGAGACACGTGGTTGC | -0.12 kcal/mol
TATTCCACGTGTCGGG | 0.18 kcal/mol
CTGTACACGTGGTGGG | 0.04 kcal/mol

Sequence | relative binding free energy
CTAATCACGTGGTGTG | 0.05 kcal/mol
TGTAGCACGTGGGGTG | -0.21 kcal/mol
GGTATCACGTGTAGGG | 0.2 kcal/mol
TAGAGCACGTGCGCGT | -0.22 kcal/mol
AATGACACGTGTGATT | 0.08 kcal/mol
CGTCGCACGTGTGTGG | -0.07 kcal/mol
TCATGCACGTGGTTTA | -0.01 kcal/mol
TTGCTCACGTGTTAGT | 0.36 kcal/mol
TTTTACACGTGAGGTG | 0.32 kcal/mol
GTTAACACGTGGGACT | 0.09 kcal/mol
ATGGCCACGTGACTGG | 0.14 kcal/mol
GGTAGCACGTGGGGAA | -0.03 kcal/mol
CTGGTCACGTGGGCGC | 0.01 kcal/mol
GTATACACGTGGGTGA | -0.12 kcal/mol
GGTGTCACGTGTGCTA | 0.07 kcal/mol
AGTTTCACGTGTGTTA | 0.22 kcal/mol
GTGGGCACGTGTAATA | 0.13 kcal/mol
GGGGGCACGTGATAGG | 0.05 kcal/mol
TCATGCACGTGTTGTT | 0.06 kcal/mol
GTTGTCACGTGATGGC | 0.39 kcal/mol
TGTGTCACGTGAGAGT | 0.21 kcal/mol
ATTCGCACGTGGGCGT | -0.07 kcal/mol
